Results from PubChem BioAssay AID504333 (National Center for Advancing Translational Sciences (NCATS), 2011).
Screen size: about 360,000 compounds; about 16,000 (4.4%) were called active. The inconclusive results got no clear call from the source; some entries with a clear call stand among them for comparison. Calls follow the shape of the dose curve; as a rule, active = well fitted inhibition curve with a large enough effect; inconclusive = small, poorly fitted or top-dose-only effect; inactive = no such curve, though single readings can be large or run the other way. A potency beside an inconclusive call is a rough fit, not a confirmed value.
Also: nearly all actives have a fitted effect of over 60% in size.
Potency is read from the fitted curve at half-maximal effect; tags tell the direction and shape of the fitted curve.

Each compound was assayed against Bromodomain adjacent to zinc finger domain protein 2B (Homo sapiens) (UniProt Q9UIF8) (assay: qHTS Assay for Inhibitors of BAZ2B). Settings: AlphaScreen BAZ2B-H3K14Ac peptide displacement; series mostly up to 114 µM.
Sequence of UniProt Q9UIF8 (Q9UIF8 whole entry, looked up, the tested form may be a part): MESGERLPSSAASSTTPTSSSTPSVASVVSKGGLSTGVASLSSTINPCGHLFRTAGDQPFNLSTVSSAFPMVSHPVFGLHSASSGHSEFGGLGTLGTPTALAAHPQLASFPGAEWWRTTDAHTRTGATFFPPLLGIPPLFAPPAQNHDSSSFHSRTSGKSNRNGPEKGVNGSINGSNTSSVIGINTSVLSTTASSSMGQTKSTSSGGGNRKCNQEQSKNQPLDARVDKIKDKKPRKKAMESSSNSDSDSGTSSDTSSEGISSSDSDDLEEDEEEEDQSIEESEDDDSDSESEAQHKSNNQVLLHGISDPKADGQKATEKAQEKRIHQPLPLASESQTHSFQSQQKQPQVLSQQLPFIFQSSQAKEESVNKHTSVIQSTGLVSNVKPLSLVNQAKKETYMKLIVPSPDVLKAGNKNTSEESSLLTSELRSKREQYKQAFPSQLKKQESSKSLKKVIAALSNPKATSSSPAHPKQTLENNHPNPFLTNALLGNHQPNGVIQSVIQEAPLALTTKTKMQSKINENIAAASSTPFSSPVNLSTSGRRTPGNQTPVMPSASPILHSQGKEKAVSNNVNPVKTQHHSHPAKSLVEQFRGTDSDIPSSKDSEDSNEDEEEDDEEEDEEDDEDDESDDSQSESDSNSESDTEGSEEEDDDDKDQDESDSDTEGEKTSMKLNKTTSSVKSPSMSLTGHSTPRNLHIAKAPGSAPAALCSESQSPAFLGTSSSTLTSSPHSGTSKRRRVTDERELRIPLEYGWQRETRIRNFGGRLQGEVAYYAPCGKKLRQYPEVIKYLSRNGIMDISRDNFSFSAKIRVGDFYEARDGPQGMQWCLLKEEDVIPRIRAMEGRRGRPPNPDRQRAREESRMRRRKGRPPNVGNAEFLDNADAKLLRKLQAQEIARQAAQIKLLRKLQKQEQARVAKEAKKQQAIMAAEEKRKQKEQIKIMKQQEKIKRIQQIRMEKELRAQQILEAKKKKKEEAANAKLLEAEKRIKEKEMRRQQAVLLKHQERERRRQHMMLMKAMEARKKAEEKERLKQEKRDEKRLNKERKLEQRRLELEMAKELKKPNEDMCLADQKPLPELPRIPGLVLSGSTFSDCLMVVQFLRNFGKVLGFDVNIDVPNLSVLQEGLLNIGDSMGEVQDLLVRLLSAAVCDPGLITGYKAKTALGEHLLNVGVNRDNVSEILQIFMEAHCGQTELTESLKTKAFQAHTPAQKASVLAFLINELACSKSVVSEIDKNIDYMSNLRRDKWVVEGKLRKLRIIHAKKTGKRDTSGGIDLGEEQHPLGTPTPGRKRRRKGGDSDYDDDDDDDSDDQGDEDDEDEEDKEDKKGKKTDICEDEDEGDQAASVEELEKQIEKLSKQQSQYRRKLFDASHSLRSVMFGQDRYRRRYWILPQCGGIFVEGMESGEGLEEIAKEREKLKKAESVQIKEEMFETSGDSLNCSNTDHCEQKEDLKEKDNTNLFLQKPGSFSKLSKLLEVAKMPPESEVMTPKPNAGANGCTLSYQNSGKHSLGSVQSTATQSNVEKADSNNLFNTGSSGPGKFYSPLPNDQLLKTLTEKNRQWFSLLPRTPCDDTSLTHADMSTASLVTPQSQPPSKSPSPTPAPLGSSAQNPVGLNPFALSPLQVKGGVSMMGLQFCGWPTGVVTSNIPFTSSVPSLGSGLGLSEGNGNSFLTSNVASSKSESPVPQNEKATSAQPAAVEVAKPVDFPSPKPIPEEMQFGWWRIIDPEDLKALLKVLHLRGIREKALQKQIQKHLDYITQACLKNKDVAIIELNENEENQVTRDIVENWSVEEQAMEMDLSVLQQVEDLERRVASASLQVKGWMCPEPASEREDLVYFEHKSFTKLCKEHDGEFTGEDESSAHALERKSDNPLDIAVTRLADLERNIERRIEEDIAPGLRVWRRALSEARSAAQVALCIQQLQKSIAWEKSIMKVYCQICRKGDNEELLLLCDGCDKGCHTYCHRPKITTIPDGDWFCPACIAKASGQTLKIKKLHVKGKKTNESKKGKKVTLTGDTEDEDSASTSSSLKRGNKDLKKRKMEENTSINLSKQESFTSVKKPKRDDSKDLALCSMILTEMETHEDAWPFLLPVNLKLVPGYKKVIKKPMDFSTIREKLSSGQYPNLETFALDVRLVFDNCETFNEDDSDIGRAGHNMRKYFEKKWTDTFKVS
Method in brief: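 AlphaScreen luminescence quantifies BAZ2B engagement of H3K14Ac peptide; the protein and biotinylated peptide are both at 50 nM final, buffer PBS pH 7.4 with 0.01% Tween-20, all steps at room temperature.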
In the case of `CN(C)S(=O)(=O)c1ccc(C(=O)N(Cc2cccnc2)c2nc3c(F)cc(F)cc3s2)cc1`, the Potency was “inactive”. `NS(=O)(=O)c1ccc(NC(=O)/C=C/c2cn(-c3ccccc3)nc2-c2cccc(Cl)c2)cc1` was tested, and the Potency was inconclusive: 89.1 µM [inhibitor, single point]. In the case of `O=C(CCC1CCCC1)NNC(=O)c1cc2ccccc2cc1O`, the Potency was inconclusive: 50.1 µM [inhibitor, partial curve]. With `O=C(O)c1ccccc1C(=O)Nc1ccc(S(=O)(=O)Nc2nccs2)cc1` the Potency was active: 50.1 µM. For `O=C(Cn1c(=O)c2cccn2c2ccc(F)cc21)NCc1cccc(Cl)c1`, the Potency was inconclusive: 39.8 µM [inhibitor, full curve, poor fit]. For `CC1=NN(c2ccccc2)C(=O)C1C=Nc1ccc(N(C)C)cc1` (centres undefined), the Potency was active: 35.5 µM. In the case of `COc1ccc(C2C(C(=O)OC(C)C)=C(C)N=c3s/c(=C\c4cccs4)c(=O)n32)cc1` (centres undefined), the Potency was inconclusive: 79.4 µM [inhibitor, single point]. `Cc1ccc2c(c1)C(c1ccncc1)=NNC(c1cccnc1)=N2` was tested, and the Potency was “inactive”. For `CCC(=O)Nc1nc2ccccc2n1CCN(CC)CC`, the Potency was inconclusive: 89.1 µM [inhibitor, single point]. `Brc1ccc(OCCN2CCOCC2)cc1` was tested, and the Potency was inconclusive: 79.4 µM [inhibitor, partial curve]. For `OC(CN1CCN(c2cccc(C(F)(F)F)c2)CC1)c1c[nH]c2ccccc12` (centres undefined), the Potency was inconclusive: 79.4 µM [inhibitor, single point]. For `COc1ccc(-c2csc(Cc3nnc(N4CCOCC4)n3-c3ccccc3)n2)cc1OC`, the Potency was inconclusive: 89.1 µM [inhibitor, single point]. `Cc1ccc(-n2ncc3c2CC(C)(C)CC3NC(=O)C2CCOCC2)cc1` (centres undefined) was tested, and the Potency was “inactive”. `O=C(N/N=C/c1ccc(Cl)cc1Cl)c1ccc(-n2cnnn2)cc1` was tested, and the Potency was “inactive”. For `CCCCCn1c(CN2CCN(c3cccc(Cl)c3)CC2)nc2c1c(=O)n(C)c(=O)n2C`, the Potency was inconclusive: 28.2 µM [inhibitor, partial curve]. In the case of `Cc1cc(NC(=O)CSc2nc3c(c(-c4cccnc4)c2C#N)CCC3)no1`, the Potency was active: 79.4 µM. For `Nc1nonc1-c1nc2ccccc2n1CC(=O)Nc1ccccc1C(=O)O`, the Potency was “inactive”. With `O=C(Nc1nnc(-c2cccs2)o1)C1CC1` the Potency was inconclusive: 89.1 µM [inhibitor, single point]. For `Cc1sc(-n2c(C)cc(C=O)c2C)c(C(=O)O)c1C`, the Potency was inconclusive: 28.2 µM [inhibitor, single point]. With `Cc1ccnc(NC(c2ccccn2)c2c(C)[nH]c3ccccc23)c1` (centres undefined) the Potency was “inactive”. `CCOC(=O)C1=C(CSc2nc3c(cc2C#N)CN(C)CC3)OC(N)=C(C#N)C1c1ccccc1` (centres undefined) was tested, and the Potency was inconclusive: 79.4 µM [inhibitor, single point]. In the case of `Cc1cccc(C)c1NC(=O)CSc1nc(-c2cccs2)cc(C(F)(F)F)n1`, the Potency was “inactive”. For `COc1ccc2nc(SCCN(C)C)[nH]c2c1`, the Potency was active: 50.1 µM. `CSCC[C@H](NC(=O)C1CCC(CNC(=O)[C@@H]2CCCN2C(=O)OC(C)(C)C)CC1)C(=O)O` (some centres undefined) was tested, and the Potency was “inactive”. With `Cc1ccc(F)cc1NC(=O)COC(=O)c1ccc2ncsc2c1` the Potency was inconclusive: 89.1 µM [inhibitor, single point]. For `Cc1ccc(Nc2ccc(N3CCN(C(=O)c4ccc([N+](=O)[O-])cc4Cl)CC3)nn2)cc1`, the Potency was inconclusive: 31.6 µM [inhibitor, partial curve]. `COc1ccc(/C=C(\NC(=O)c2ccccc2)C(=O)OCC2CCCN3CCCCC23)cc1OC` (centres undefined) was tested, and the Potency was “inactive”. For `O=c1c2c3nc4ccccc4nc3n(Cc3ccccc3)c2ncn1Cc1ccco1`, the Potency was active: 50.1 µM. With `O=C(CSc1ccc([N+](=O)[O-])cn1)Nc1ccc2c(c1)OCO2` the Potency was inconclusive: 89.1 µM [inhibitor, single point]. With `O=C(CSc1ncn[nH]1)CSc1ncn[nH]1` the Potency was inconclusive: 89.1 µM [inhibitor, single point]. In the case of `O=C1c2ccccc2-c2nnc(-c3ccccc3)cc21`, the Potency was inconclusive: 79.4 µM [inhibitor, single point]. In the case of `COC(=O)c1cc2c(-c3ccccc3)cc3ccccn3c-2c1C(=O)OC`, the Potency was active: 12.6 µM. For `CCCOc1ccc(/C=N/Nc2ccc(C(=O)O)cc2)c(OCCC)c1`, the Potency was inconclusive: 70.8 µM [inhibitor, partial curve]. With `O=S(=O)(Nc1nc2ccccc2nc1Cl)c1ccccc1C(F)(F)F` the Potency was “inactive”. For `CC(/C=C1\SC(=S)N(C(C(=O)O)C(C)C)C1=O)=C\c1ccccc1` (centres undefined), the Potency was active: 25.1 µM. For `CCc1ccc(-n2c(CCC(=O)O)ccc2-c2cccs2)cc1`, the Potency was inconclusive: 50.1 µM [inhibitor, partial curve]. With `Cc1ccc2nc3c(cc2c1)CN(Cc1ccco1)C(=NCC1CCCO1)S3` (centres undefined) the Potency was “inactive”. For `COc1cc(/C=N/NC(=O)c2ccncc2)ccc1OC(C)=O`, the Potency was “inactive”. With `CC(C)c1ccc(CCNC(=O)c2ccc([N+](=O)[O-])cc2)cc1` the Potency was “inactive”. In the case of `[N-]=[N+]=N[C@@H](CCN1CC[C@H](O)CCC1=O)c1ccccc1`, the Potency was inconclusive: 39.8 µM [inhibitor, single point]. `COC(=O)CSc1[nH]c(=O)cc(C)c1C#N` was tested, and the Potency was “inactive”. For `Cc1ccc(N2CCN(c3ccc(C)cc3)C2c2cccnc2)cc1`, the Potency was active: 35.5 µM. With `COc1nccnc1NS(=O)(=O)c1ccc(NC(=S)NC(=O)c2cccnc2)cc1` the Potency was inconclusive: 56.2 µM [inhibitor, partial curve]. With `Brc1ccccc1-n1ncc2c1ncn1nc(Cc3ccccc3)nc21` the Potency was “inactive”. `O=c1cc(CSc2ncn[nH]2)[nH]c2c(Cl)cccc12` was tested, and the Potency was “inactive”. `Cc1ccc(C2CC2c2n[nH]c(=S)n2-c2ccc(C)cc2)cc1` (centres undefined) was tested, and the Potency was “inactive”. With `COc1cc(/C=N/c2oc(C)c(C)c2C#N)cc(Br)c1O` the Potency was inconclusive: 50.1 µM [inhibitor, partial curve]. With `CCOC(=O)C1CCCN(CC(O)COc2ccc(OC)cc2C(C)(C)C)C1` (centres undefined) the Potency was active: 50.1 µM. `Cc1ccc(C)c(CN2C(=O)c3ccccc3S(=O)c3ccc(C(=O)NCc4ccccc4Cl)cc32)c1` (centres undefined) was tested, and the Potency was inconclusive: 89.1 µM [inhibitor, single point].
